# In all, about 33,000 sequences were measured (“E-score (-0.5 to 0.5)”: median about -0.041, highest 2% from about 0.37 on). The list shows a part of the results.
# Biological target: T1, Ecm22 (UniProt Q05958)
# T1 sequence: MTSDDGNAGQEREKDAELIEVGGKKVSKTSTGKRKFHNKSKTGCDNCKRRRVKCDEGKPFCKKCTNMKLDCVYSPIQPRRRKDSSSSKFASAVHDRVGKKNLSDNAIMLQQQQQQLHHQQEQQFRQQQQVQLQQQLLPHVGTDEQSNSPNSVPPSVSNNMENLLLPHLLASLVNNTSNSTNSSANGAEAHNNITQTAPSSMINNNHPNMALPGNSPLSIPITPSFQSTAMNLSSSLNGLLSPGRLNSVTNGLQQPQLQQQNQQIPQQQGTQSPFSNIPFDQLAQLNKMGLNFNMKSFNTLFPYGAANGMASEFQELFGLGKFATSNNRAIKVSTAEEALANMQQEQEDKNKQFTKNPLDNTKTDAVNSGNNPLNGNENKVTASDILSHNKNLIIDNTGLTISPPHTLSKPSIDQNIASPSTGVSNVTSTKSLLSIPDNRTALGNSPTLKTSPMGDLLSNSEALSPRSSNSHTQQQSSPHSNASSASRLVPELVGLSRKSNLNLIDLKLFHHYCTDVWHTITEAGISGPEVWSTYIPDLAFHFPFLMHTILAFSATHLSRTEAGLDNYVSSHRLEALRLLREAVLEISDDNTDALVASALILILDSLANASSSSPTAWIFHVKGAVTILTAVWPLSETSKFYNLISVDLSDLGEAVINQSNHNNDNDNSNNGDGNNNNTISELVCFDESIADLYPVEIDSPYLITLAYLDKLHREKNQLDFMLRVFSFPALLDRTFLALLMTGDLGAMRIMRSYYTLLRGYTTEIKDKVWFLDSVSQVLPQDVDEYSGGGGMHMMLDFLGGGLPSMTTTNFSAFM
# Test: PBM E-score (8-mer binding enrichment) (E-score (-0.5 to 0.5)); higher = stronger / more preferred TF binding; most listed sequences are background and not binding sites
# Details: protein concentration: 200 nM; construct: GST-full length
# Procedure, shortened: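 Full-length yeast transcription factors or their DNA-binding domains, GST-tagged and expressed with PURExpress, were applied at about 100-200 nM to universal all-10-mer Agilent arrays. These arrays had been made double-stranded by primer extension on fresh or once-stripped slides. Detection used fluorescent anti-GST, normalisation used masliner, and E-scores for ungapped eight-base words pooled with reverse complements came from the Universal PBM Analysis Suite.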
row,Sequence,PBM E-score
1,GGTAGACC,0.00782
2,GACCGACC,0.188
3,GTGACCGA,0.176
4,GTTTTGTA,0.18
5,GACGCGAC,0.0286
6,CTCTTGAC,-0.0432
7,CTCCCTTC,-0.245
8,AACGGGTC,0.163
9,AGCAAGAT,-0.0406
10,AGCGGTCA,-0.179
11,TCTATTCA,0.0404
12,CATTCGGC,-0.0765
13,GGCTGACA,-0.144
14,TACTTCTA,-0.0166
15,AATACAGA,-0.0653
16,ACGAGAGG,0.362
17,CGTACATA,0.414
18,AAGCCGAG,0.0901
19,ACCCGACT,0.1
20,GCGAATCC,0.209
21,AACTATCA,0.137
22,GTATTACA,0.142

row,Sequence,PBM E-score
1,CTGCGCGC,0.17
2,CGGTGCCA,-0.206
3,AAAGGTGG,-0.179
4,ACGGCCTA,0.219
5,ACGATTAA,0.308
6,ACTCAGAT,-0.113
7,ACCTGAGC,-0.0674
8,AGATGGCA,0.0424
9,TCCGCGCA,0.0162
10,GTTCAGAA,0.174
11,AATTACCG,0.231
12,AACATTCG,0.0929
13,AACAAGAA,-0.103
14,AGTGGATG,0.0301
15,ACAGACCC,-0.0656
16,TACCTGAA,0.0384
17,AAAGCCCG,0.0235
18,GGTACCAC,-0.137
19,ATTTGGCG,0.114
20,AGACTCGA,-0.114
21,CTCGGCTA,0.164
22,CTCTGGAC,-0.0989

row,Sequence,PBM E-score
1,GCATAAGA,-0.0193
2,ATAGTACC,0.00552
3,ATTGCCAG,-0.0635
4,AATACCAC,-0.0274
5,AAATTTTG,-0.213
6,AATTTCGG,0.052
7,ACTGTCCT,-0.0726
8,AAGTCAGC,0.0129
9,AGCACTGC,-0.141
10,GCTTCTCC,-0.0844
11,CTGGTACC,-0.16
12,TTCGCCAA,0.0928
13,CATCGGCG,-0.154
14,ACAGTGAC,-0.109
15,ATGCGGAC,0.109
16,CGTCAATA,-0.146
17,ACACTCTG,0.0047
18,CCGCCACC,-0.209
19,ACTCTGCG,0.0804
20,ATAGCGCG,0.158
21,CTAATCCA,-0.2
22,CAGAACCG,0.0537

row,Sequence,PBM E-score
1,GAACTATC,-0.00715
2,TAGCCCAA,-0.239
3,GTGCACAC,-0.141
4,CAACAAAC,0.0891
5,AGCTGTGG,-0.264
6,GACTTCGC,0.232
7,CGCTGTTC,-0.014
8,CTGTTTGA,-0.0529
9,AATGTAGG,-0.269
10,AGTCCCTG,-0.206
11,CCCTAGAC,-0.275
12,AGTTTTAA,-0.0552
13,AGGCTACG,0.164
14,ACCGAACG,0.282
15,GCGCGAAA,-0.00591
16,GTAAAAAC,0.174
17,GCTCGGAA,0.225
18,CCTAAACG,0.407
19,GCTCCCTA,-0.0796
20,CAAATCCC,-0.151
